The values below come from PMC4336329 (PLoS ONE, 2015).

Screen size: about 310,000 compounds; about 14,000 (4.5%) showed an effect of 50% or more. Effects have a minus sign here. Some of the results follow.
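Note: peak tail current of the secondary pulse compared with the same well before compound.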

Sequence of human ether-à-go-go-related gene (hERG) potassium channel (Q12809 whole entry, looked up): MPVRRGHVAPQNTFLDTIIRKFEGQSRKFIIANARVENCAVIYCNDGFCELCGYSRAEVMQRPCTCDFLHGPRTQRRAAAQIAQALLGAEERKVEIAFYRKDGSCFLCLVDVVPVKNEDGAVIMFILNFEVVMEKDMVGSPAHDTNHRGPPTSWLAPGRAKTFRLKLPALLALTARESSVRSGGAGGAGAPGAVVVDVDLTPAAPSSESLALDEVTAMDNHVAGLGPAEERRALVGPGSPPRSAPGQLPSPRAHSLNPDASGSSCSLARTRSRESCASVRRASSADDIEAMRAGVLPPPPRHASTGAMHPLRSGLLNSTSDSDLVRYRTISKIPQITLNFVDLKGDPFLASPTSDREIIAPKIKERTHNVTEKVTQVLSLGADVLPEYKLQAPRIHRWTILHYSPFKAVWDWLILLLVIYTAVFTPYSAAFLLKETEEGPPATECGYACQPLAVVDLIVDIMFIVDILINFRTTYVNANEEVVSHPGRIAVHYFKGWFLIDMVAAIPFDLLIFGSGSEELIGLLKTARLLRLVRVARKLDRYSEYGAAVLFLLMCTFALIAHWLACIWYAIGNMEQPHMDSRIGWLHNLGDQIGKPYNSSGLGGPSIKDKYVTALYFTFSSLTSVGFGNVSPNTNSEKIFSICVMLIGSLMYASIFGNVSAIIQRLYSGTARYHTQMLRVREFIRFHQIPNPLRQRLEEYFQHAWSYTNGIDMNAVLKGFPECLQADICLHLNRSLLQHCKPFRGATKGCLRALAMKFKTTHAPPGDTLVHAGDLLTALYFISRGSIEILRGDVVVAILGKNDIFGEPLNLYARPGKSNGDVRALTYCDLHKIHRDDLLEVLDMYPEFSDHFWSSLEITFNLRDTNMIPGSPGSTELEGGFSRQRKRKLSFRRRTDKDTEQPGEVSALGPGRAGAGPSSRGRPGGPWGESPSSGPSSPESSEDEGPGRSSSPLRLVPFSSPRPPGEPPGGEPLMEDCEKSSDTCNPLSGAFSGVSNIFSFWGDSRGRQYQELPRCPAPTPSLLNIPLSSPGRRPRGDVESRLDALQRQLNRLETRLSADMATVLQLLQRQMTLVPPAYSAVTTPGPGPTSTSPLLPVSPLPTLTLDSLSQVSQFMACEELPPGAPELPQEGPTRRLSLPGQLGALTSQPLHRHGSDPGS

The assay addresses human ether-à-go-go-related gene (hERG) potassium channel (human, UniProt Q12809). Briefly: primary screen, population patch clamp on CHO cells stably expressing hERG.
For the molecule `COc1ccc(OC)c(C2C(C(C)=O)=C(O)C(=O)N2CCc2ccc(OC)c(OC)c2)c1` (stereo not drawn), the “hERG current change (%, negative = inhibition) at 10uM” value was -5.15%. For `CC(Nc1nc(N2CCNCC2)nc2ccccc12)c1ccccc1` (stereo not drawn) the value was -66.2%. Turning to `Cc1cc(C)nc(/N=C(/NC(=O)Nc2cccc(Cl)c2)Nc2ccccc2)n1`, the “hERG current change (%, negative = inhibition) at 10uM” value was determined as 17.8%. Regarding `Cn1c(SCC(=O)N2CCCCC2)nc2c([nH]c3ccccc32)c1=O`, the “hERG current change (%, negative = inhibition) at 10uM” value was -2.25%. On to `Cc1ccc(-c2ccc(/C=C(\C#N)C(N)=S)n2C)cc1`, for which the “hERG current change (%, negative = inhibition) at 10uM” value was determined as 14%. On to `COc1cccc(/C=C/C(=O)OCCN2C(=O)c3ccccc3C2=O)c1`, for which the “hERG current change (%, negative = inhibition) at 10uM” value was 14.2%. For `Cc1ccc(CNS(=O)(=O)c2ccc3c(c2)n(C)c(=O)n3C)cc1` the value was 8.02%; for `CN(CC(=O)Nc1ccccc1C(=O)N1CCCC1)S(=O)(=O)c1ccc(Cl)cc1`, -22.8%; for `NS(=O)(=O)c1ccc(CCNC(=O)c2ccc(Cl)cc2[N+](=O)[O-])cc1`, 16.7%. `COc1cccc(NC(=O)N2CCCC2C(=O)NC2CCCCC2)c1` (stereo not drawn): the “hERG current change (%, negative = inhibition) at 10uM” value stood at 6.4%. In the case of `O=C(c1ccco1)N1CCN(Cc2cc(=O)c(OCc3ccccc3F)co2)CC1` it was -30.4%. For `CC(C)CN1CCN(Cc2cnc(N3CCOCC3)s2)CC1CCO` (stereo not drawn) the value was -4.34%.

On to `CN(C)C(=O)c1ccc(NC(=O)COC(=O)c2cc3c(s2)CCCCC3)cc1`, for which the “hERG current change (%, negative = inhibition) at 10uM” value was -14.5%. For `CCOC(=O)c1ccc(NC(=S)Nc2ccccc2)cc1`, the “hERG current change (%, negative = inhibition) at 10uM” value was -4.5%. Take `O=C(c1cc(-c2ccc(Cl)cc2)nc2ccccc12)N1CCC1`: the “hERG current change (%, negative = inhibition) at 10uM” value was -59.7%.

On to `CSc1ncccc1C(=O)NCC(=O)Nc1ccc(F)c(F)c1`, for which the “hERG current change (%, negative = inhibition) at 10uM” value came to 15.7%.

On to `COc1ccccc1-c1csc(Cc2nnc3n2CCCCC3)n1`, for which the “hERG current change (%, negative = inhibition) at 10uM” value was -15.2%. With `CCOc1ccc2ccccc2c1C(=O)NCC(c1ccc(N(C)C)cc1)N(C)C` (stereo not drawn), the “hERG current change (%, negative = inhibition) at 10uM” value is on record as -27.1%. For `Cc1cccc(OCC(=O)Nc2ccc(S(=O)(=O)N3CCN(C)CC3)cc2)c1` the value was -9.66%; for `COC(=O)c1cc2ccsc2n1Cc1cccc(F)c1`, -0.987%; for `C/C(=N\OCC(=O)OCC(=O)Nc1cc(S(C)(=O)=O)ccc1Cl)c1ccc2c(c1)OCO2`, -2.73%. For `Cc1cc2n(n1)C(c1ccccc1)CC(c1ccc(Br)cc1)=N2` (stereo not drawn) the value was -1.85%. Turning to `NC(=O)CC(NC(=O)c1ccccc1)c1ccc(NC2CCC2)c([N+](=O)[O-])c1` (stereo not drawn), the “hERG current change (%, negative = inhibition) at 10uM” value is -38.7%. In the case of `CCOC(=O)c1ccc(N=C(C)c2c(O)[nH]c(=O)[nH]c2=O)cc1` it was 10.8%.

Turning to `CCOC(=O)N1CCN(C(=O)c2ccc3c(c2)N(Cc2cc(C)ccc2C)C(=O)c2ccccc2S3=O)CC1` (stereo not drawn), the “hERG current change (%, negative = inhibition) at 10uM” value is reported as -4.78%. On to `Cc1cc(C(=O)OCC(=O)NCc2ccc(Cl)cc2Cl)c(C)o1`, for which the “hERG current change (%, negative = inhibition) at 10uM” value came out at 9.75%. In the case of `Cc1ccc(-c2noc(C3CCCN(C(=O)c4c(F)cccc4F)C3)n2)cc1` (stereo not drawn), the “hERG current change (%, negative = inhibition) at 10uM” value is on record as -27.4%.

In the case of `NC(=O)[C@H]1CC2(CC(c3cccc(NC(=O)COc4ccc(Cl)cc4)c3)=NO2)CN1C(=O)c1ccccc1C(=O)c1ccccc1` (stereo partly drawn), the “hERG current change (%, negative = inhibition) at 10uM” value came to 0.343%. `Cc1cc(C)nc(N/N=C/c2ccncc2)n1`: the “hERG current change (%, negative = inhibition) at 10uM” value stood at 25.4%.

With `Cc1ccc(C2C(=O)N(C3CCCC3)CC(=O)N2CC2COc3ccccc3O2)cc1` (stereo not drawn), the “hERG current change (%, negative = inhibition) at 10uM” value is -12%.

For the molecule `O=C(Nc1sc2c(c1C(=O)NCc1ccco1)CCCC2)c1ccc2c(c1)OCO2`, the “hERG current change (%, negative = inhibition) at 10uM” value worked out at 6.34%.

In the case of `CNc1nc(N2CCc3ccccc32)ncc1F`, the “hERG current change (%, negative = inhibition) at 10uM” value is given as -1.71%. As to `CCOC(=O)N1CCC(NS(=O)(=O)c2ccccc2)CC1`, the “hERG current change (%, negative = inhibition) at 10uM” value came to 12.2%. For `Cc1onc(-c2ccccc2Cl)c1C(=O)Nc1nc2c(s1)CCCC2` the value was 10.4%; for `O=C(NCc1ccco1)c1cc2cc(Br)ccc2o1`, 1.76%; for `Cc1cccc(C)c1NC(=S)NNc1ncc(C(F)(F)F)cc1Cl`, 11.1%. In the case of `COC(=O)c1ccccc1NC(=O)C1CC(=O)N(c2ccc(C)cc2)C1` (stereo not drawn), the “hERG current change (%, negative = inhibition) at 10uM” value is -11.4%. `Cc1ccccc1OCC(=O)NC(=S)Nc1ccc2c3c(cccc13)CC2`: the “hERG current change (%, negative = inhibition) at 10uM” value was determined as 26.7%. For `Cc1cccc(NC(=O)c2ccc3c(=O)n4c(nc3c2)CCCCC4)n1` the value was -67.2%; for `CCOC(=O)C1=C(CS(=O)(=O)c2ccc(F)cc2)NC(=O)NC1c1cc(OC)c(O)c(OC)c1` (stereo not drawn), 10.3%; for `COc1ccc(OC)c(NC(=O)c2nnn(Cc3ccccc3C)c2N)c1`, -7.1%. In the case of `Cc1ccc(-n2nc3c(c2NC(=O)c2ccc(OC(C)C)cc2)CS(=O)C3)cc1` (stereo not drawn), the “hERG current change (%, negative = inhibition) at 10uM” value is reported as -12.8%. In the case of `CCc1cccc(C)c1NC(=S)N1CC2CC(C1)c1cccc(=O)n1C2` (stereo not drawn) it was 12.1%. Turning to `C=CCC1(CC=C)CCCN1C(=O)c1cc(COc2cncc(Cl)c2)on1`, the “hERG current change (%, negative = inhibition) at 10uM” value was -11.6%. For the molecule `O=C(COC(=O)CCc1ccc(S(=O)(=O)N2CCOCC2)cc1)Nc1ncc(C(F)(F)F)cc1Cl`, the “hERG current change (%, negative = inhibition) at 10uM” value is -37.4%. For `O=C(Nc1ccc(Cl)cc1)c1ccco1`, the “hERG current change (%, negative = inhibition) at 10uM” value is -6.25%.

In the case of `Cc1[nH]c2ccccc2c1/C=N/NC(=O)CCC(=O)Nc1ccccc1`, the “hERG current change (%, negative = inhibition) at 10uM” value is given as 11.4%. For `O=C(NCc1ccco1)c1ccc2c(=O)n(Cc3ccco3)c(SCC(=O)N3CCCC3)nc2c1` the value was -76.4%; for `COc1ccccc1CC(=O)Nc1ccc(-c2noc(COc3ccc(Cl)c(C)c3)n2)cc1`, 1.7%. In the case of `Cn1c(O)c(/C=N/N2CCOCC2)c(=O)n(-c2ccccc2)c1=S` it was 0.0549%; in that of `COCc1nnc(NS(=O)(=O)c2ccc(NC(C)=O)cc2)s1`, 11%. For `S=C(NCCc1ccccc1)NCC(c1ccco1)N1CCCCC1` (stereo not drawn) the value was -36.3%. `CS/C(=N\S(=O)(=O)c1cccs1)Nc1ccc(Br)cc1F`: the “hERG current change (%, negative = inhibition) at 10uM” value is reported as -19.5%. Take `CCOc1ccc(S(=O)(=O)NCC2CCCO2)c2ccccc12` (stereo not drawn): the “hERG current change (%, negative = inhibition) at 10uM” value is reported as -4.71%.
